Measurements taken from the supplement of paper PMC12230231.

What follows are sequences tested on SIVsab (simian immunodeficiency virus of sabaeus monkeys), single-cycle GFP reporter, in CRFK cells (assay: enrichment among uninfected cells over input (fold); higher = stronger restriction). Details: library: human / rhesus combinations.
Procedure: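 Pools of CRFK cells expressing variants of the TRIM5α v1 loop were challenged with the single-cycle reporter, sorted by GFP and sequenced; mean of two replicates.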

**Q.** How did the enrichment turn out when “MASGILVNVKEEVTCPICLELLTQPLSLDCGHSFCQACLTANHKKSMLDKGESSCPVCRISYQPENIRPNRHVANIVEKLREVKLSPEGQKVDHCARHGEKLLLFCQEDGKVICWLCERSQEHRGHHTFLTEEVAREYQVKLQAALEMLRQKQQEAEELEADIREEKASWKTQIQYDKTNVLADFEQLRDILDWEESNELQNLEKEEEDILKSLTNSETEMVQQTQSLRELISDLEHRLQGSVMELLQGVDGVIKRTENVTLKKPETFPKNQRRVFRAPDLKGMLEVFRELTDVRRYWVDVTVAPNNISCAVISEDKRQVSSPKPQIIYQARGTLYTFPTLTNFNYCTGILGSQSITSGKHYWEVDVSKKTAWILGVCAGFQPDAMCNIEKNENYQPKYGYWVIGLEEGVKCSAFQDSSFHTPSVPFIVPLSVIICPDRVGVFLDYEACTVSFFNITNHGFLIYKFSHCSFSQPVFPYLNPRKCGVPMTLCSPSS [human TRIM5α, 330-340 = QARGTLYTFPTLT]” was run?
**A.** Its enrichment is 0.253 ± 0.17.

**Q.** How did the enrichment turn out when “MASGILVNVKEEVTCPICLELLTQPLSLDCGHSFCQACLTANHKKSMLDKGESSCPVCRISYQPENIRPNRHVANIVEKLREVKLSPEGQKVDHCARHGEKLLLFCQEDGKVICWLCERSQEHRGHHTFLTEEVAREYQVKLQAALEMLRQKQQEAEELEADIREEKASWKTQIQYDKTNVLADFEQLRDILDWEESNELQNLEKEEEDILKSLTNSETEMVQQTQSLRELISDLEHRLQGSVMELLQGVDGVIKRTENVTLKKPETFPKNQRRVFRAPDLKGMLEVFRELTDVRRYWVDVTVAPNNISCAVISEDKRQVSSPKPQIIYGAPGTLFTFPTLVNFNYCTGILGSQSITSGKHYWEVDVSKKTAWILGVCAGFQPDAMCNIEKNENYQPKYGYWVIGLEEGVKCSAFQDSSFHTPSVPFIVPLSVIICPDRVGVFLDYEACTVSFFNITNHGFLIYKFSHCSFSQPVFPYLNPRKCGVPMTLCSPSS [human TRIM5α, 330-340 = GAPGTLFTFPTLV]” was run?
**A.** Its enrichment is 0.275 ± 0.13.

**Q.** Which enrichment does the source give for “MASGILVNVKEEVTCPICLELLTQPLSLDCGHSFCQACLTANHKKSMLDKGESSCPVCRISYQPENIRPNRHVANIVEKLREVKLSPEGQKVDHCARHGEKLLLFCQEDGKVICWLCERSQEHRGHHTFLTEEVAREYQVKLQAALEMLRQKQQEAEELEADIREEKASWKTQIQYDKTNVLADFEQLRDILDWEESNELQNLEKEEEDILKSLTNSETEMVQQTQSLRELISDLEHRLQGSVMELLQGVDGVIKRTENVTLKKPETFPKNQRRVFRAPDLKGMLEVFRELTDVRRYWVDVTVAPNNISCAVISEDKRQVSSPKPQIIYQARGTLYTFPSLVNFNYCTGILGSQSITSGKHYWEVDVSKKTAWILGVCAGFQPDAMCNIEKNENYQPKYGYWVIGLEEGVKCSAFQDSSFHTPSVPFIVPLSVIICPDRVGVFLDYEACTVSFFNITNHGFLIYKFSHCSFSQPVFPYLNPRKCGVPMTLCSPSS [human TRIM5α, 330-340 = QARGTLYTFPSLV]” here?
**A.** The enrichment was 0.158 ± 0.0066.

**Q.** For “MASGILVNVKEEVTCPICLELLTQPLSLDCGHSFCQACLTANHKKSMLDKGESSCPVCRISYQPENIRPNRHVANIVEKLREVKLSPEGQKVDHCARHGEKLLLFCQEDGKVICWLCERSQEHRGHHTFLTEEVAREYQVKLQAALEMLRQKQQEAEELEADIREEKASWKTQIQYDKTNVLADFEQLRDILDWEESNELQNLEKEEEDILKSLTNSETEMVQQTQSLRELISDLEHRLQGSVMELLQGVDGVIKRTENVTLKKPETFPKNQRRVFRAPDLKGMLEVFRELTDVRRYWVDVTVAPNNISCAVISEDKRQVSSPKPQIIYGAPGTRYTFPTLVNFNYCTGILGSQSITSGKHYWEVDVSKKTAWILGVCAGFQPDAMCNIEKNENYQPKYGYWVIGLEEGVKCSAFQDSSFHTPSVPFIVPLSVIICPDRVGVFLDYEACTVSFFNITNHGFLIYKFSHCSFSQPVFPYLNPRKCGVPMTLCSPSS [human TRIM5α, 330-340 = GAPGTRYTFPTLV]”, which enrichment is on record?
**A.** The enrichment was 0.049 ± 0.015.

**Q.** With “MASGILVNVKEEVTCPICLELLTQPLSLDCGHSFCQACLTANHKKSMLDKGESSCPVCRISYQPENIRPNRHVANIVEKLREVKLSPEGQKVDHCARHGEKLLLFCQEDGKVICWLCERSQEHRGHHTFLTEEVAREYQVKLQAALEMLRQKQQEAEELEADIREEKASWKTQIQYDKTNVLADFEQLRDILDWEESNELQNLEKEEEDILKSLTNSETEMVQQTQSLRELISDLEHRLQGSVMELLQGVDGVIKRTENVTLKKPETFPKNQRRVFRAPDLKGMLEVFRELTDVRRYWVDVTVAPNNISCAVISEDKRQVSSPKPQIIYQAPGTLYTFQSLVNFNYCTGILGSQSITSGKHYWEVDVSKKTAWILGVCAGFQPDAMCNIEKNENYQPKYGYWVIGLEEGVKCSAFQDSSFHTPSVPFIVPLSVIICPDRVGVFLDYEACTVSFFNITNHGFLIYKFSHCSFSQPVFPYLNPRKCGVPMTLCSPSS [human TRIM5α, 330-340 = QAPGTLYTFQSLV]” as the sequence, how does the enrichment read?
**A.** Its enrichment is 0.133 ± 0.18.

**Q.** For “MASGILVNVKEEVTCPICLELLTQPLSLDCGHSFCQACLTANHKKSMLDKGESSCPVCRISYQPENIRPNRHVANIVEKLREVKLSPEGQKVDHCARHGEKLLLFCQEDGKVICWLCERSQEHRGHHTFLTEEVAREYQVKLQAALEMLRQKQQEAEELEADIREEKASWKTQIQYDKTNVLADFEQLRDILDWEESNELQNLEKEEEDILKSLTNSETEMVQQTQSLRELISDLEHRLQGSVMELLQGVDGVIKRTENVTLKKPETFPKNQRRVFRAPDLKGMLEVFRELTDVRRYWVDVTVAPNNISCAVISEDKRQVSSPKPQIIYQAPGTRYPSLVNFNYCTGILGSQSITSGKHYWEVDVSKKTAWILGVCAGFQPDAMCNIEKNENYQPKYGYWVIGLEEGVKCSAFQDSSFHTPSVPFIVPLSVIICPDRVGVFLDYEACTVSFFNITNHGFLIYKFSHCSFSQPVFPYLNPRKCGVPMTLCSPSS [human TRIM5α, 330-340 = QAPGTRYPSLV]”, which enrichment is on record?
**A.** Its enrichment is 0.927 ± 0.72.

Same assay, conditions: library: insertions and deletions

**Q.** How did the enrichment turn out when “MASGILVNVKEEVTCPICLELLTQPLSLDCGHSFCQACLTANHKKSMLDKGESSCPVCRISYQPENIRPNRHVANIVEKLREVKLSPEGQKVDHCARHGEKLLLFCQEDGKVICWLCERSQEHRGHHTFLTEEVAREYQVKLQAALEMLRQKQQEAEELEADIREEKASWKTQIQYDKTNVLADFEQLRDILDWEESNELQNLEKEEEDILKSLTNSETEMVQQTQSLRELISDLEHRLQGSVMELLQGVDGVIKRTENVTLKKPETFPKNQRRVFRAPDLKGMLEVFRELTDVRRYWVDVTVAPNNISCAVISEDKRQVSSPKPQIIYGARYQTFVNFNYCTGILGSQSITSGKHYWEVDVSKKTAWILGVCAGFQPDAMCNIEKNENYQPKYGYWVIGLEEGVKCSAFQDSSFHTPSVPFIVPLSVIICPDRVGVFLDYEACTVSFFNITNHGFLIYKFSHCSFSQPVFPYLNPRKCGVPMTLCSPSS [human TRIM5α, 3-codon deletion at 333]” was run?
**A.** The enrichment was 0.543 ± 0.45.

**Q.** Which enrichment does the source give for “MASGILVNVKEEVTCPICLELLTQPLSLDCGHSFCQACLTANHKKSMLDKGESSCPVCRISYQPENIRPNRHVANIVEKLREVKLSPEGQKVDHCARHGEKLLLFCQEDGKVICWLCERSQEHRGHHTFLTEEVAREYQVKLQAALEMLRQKQQEAEELEADIREEKASWKTQIQYDKTNVLADFEQLRDILDWEESNELQNLEKEEEDILKSLTNSETEMVQQTQSLRELISDLEHRLQGSVMELLQGVDGVIKRTENVTLKKPETFPKNQRRVFRAPDLKGMLEVFRELTDVRRYWVDVTVAPNNISCAVISEDKRQVSSPKPQIIYGARGTRYCTGILGSQSITSGKHYWEVDVSKKTAWILGVCAGFQPDAMCNIEKNENYQPKYGYWVIGLEEGVKCSAFQDSSFHTPSVPFIVPLSVIICPDRVGVFLDYEACTVSFFNITNHGFLIYKFSHCSFSQPVFPYLNPRKCGVPMTLCSPSS [human TRIM5α, 8-codon deletion at 337]” here?
**A.** Its enrichment is 0.405 ± 0.087.

**Q.** How did the enrichment turn out when “MASGILVNVKEEVTCPICLELLTQPLSLDCGHSFCQACLTANHKKSMLDKGESSCPVCRISYQPENIRPNRHVANIVEKLREVKLSPEGQKVDHCARHGEKLLLFCQEDGKVICWLCERSQEHRGHHTFLTEEVAREYQVKLQAALEMLRQKQQEAEELEADIREEKASWKTQIQYDKTNVLADFEQLRDILDWEESNELQNLEKEEEDILKSLTNSETEMVQQTQSLRELISDLEHRLQGSVMELLQGVDGVIKRTENVTLKKPETFPKNQRRVFRAPDLKGMLEVFRELTDVRRYWVDVTVAPNNISCAVISEDKRQVSSPKPQIIYGARVNFNYCTGILGSQSITSGKHYWEVDVSKKTAWILGVCAGFQPDAMCNIEKNENYQPKYGYWVIGLEEGVKCSAFQDSSFHTPSVPFIVPLSVIICPDRVGVFLDYEACTVSFFNITNHGFLIYKFSHCSFSQPVFPYLNPRKCGVPMTLCSPSS [human TRIM5α, 7-codon deletion at 333]” was run?
**A.** Its enrichment is 0.411 ± 0.35.

**Q.** How did the enrichment turn out when “MASGILVNVKEEVTCPICLELLTQPLSLDCGHSFCQACLTANHKKSMLDKGESSCPVCRISYQPENIRPNRHVANIVEKLREVKLSPEGQKVDHCARHGEKLLLFCQEDGKVICWLCERSQEHRGHHTFLTEEVAREYQVKLQAALEMLRQKQQEAEELEADIREEKASWKTQIQYDKTNVLADFEQLRDILDWEESNELQNLEKEEEDILKSLTNSETEMVQQTQSLRELISDLEHRLQGSVMELLQGVDGVIKRTENVTLKKPETFPKNQRRVFRAPDLKGMLEVFRELTDVRRYWVDVTVAPNNISCAVISEDKRQVSSPKPQIIYGARGTRYQTFVNFNFNYCTGILGSQSITSGKHYWEVDVSKKTAWILGVCAGFQPDAMCNIEKNENYQPKYGYWVIGLEEGVKCSAFQDSSFHTPSVPFIVPLSVIICPDRVGVFLDYEACTVSFFNITNHGFLIYKFSHCSFSQPVFPYLNPRKCGVPMTLCSPSS [human TRIM5α, 2-codon duplication at 341]” was run?
**A.** Its enrichment is 0.502 ± 0.45.

**Q.** How did the enrichment turn out when “MASGILVNVKEEVTCPICLELLTQPLSLDCGHSFCQACLTANHKKSMLDKGESSCPVCRISYQPENIRPNRHVANIVEKLREVKLSPEGQKVDHCARHGEKLLLFCQEDGKVICWLCERSQEHRGHHTFLTEEVAREYQVKLQAALEMLRQKQQEAEELEADIREEKASWKTQIQYDKTNVLADFEQLRDILDWEESNELQNLEKEEEDILKSLTNSETEMVQQTQSLRELISDLEHRLQGSVMELLQGVDGVIKRTENVTLKKPETFPKNQRRVFRAPDLKGMLEVFRELTDVRRYWVDVTVAPNNISCAVISEDKRQVSSPKPQIIYGARGTRYQTFVNFNYCTGILGSQYCTGILGSQSITSGKHYWEVDVSKKTAWILGVCAGFQPDAMCNIEKNENYQPKYGYWVIGLEEGVKCSAFQDSSFHTPSVPFIVPLSVIICPDRVGVFLDYEACTVSFFNITNHGFLIYKFSHCSFSQPVFPYLNPRKCGVPMTLCSPSS [human TRIM5α, 9-codon duplication at 344]” was run?
**A.** The enrichment was 0.582 ± 0.48.

**Q.** How did the enrichment turn out when “MASGILVNVKEEVTCPICLELLTQPLSLDCGHSFCQACLTANHKKSMLDKGESSCPVCRISYQPENIRPNRHVANIVEKLREVKLSPEGQKVDHCARHGEKLLLFCQEDGKVICWLCERSQEHRGHHTFLTEEVAREYQVKLQAALEMLRQKQQEAEELEADIREEKASWKTQIQYDKTNVLADFEQLRDILDWEESNELQNLEKEEEDILKSLTNSETEMVQQTQSLRELISDLEHRLQGSVMELLQGVDGVIKRTENVTLKKPETFPKNQRRVFRAPDLKGMLEVFRELTDVRRYWVDVTVAPNNISCAVISEDKRQVSSPKPQIIYGARGTRYQTFVNFNYCFVNFNYCTGILGSQSITSGKHYWEVDVSKKTAWILGVCAGFQPDAMCNIEKNENYQPKYGYWVIGLEEGVKCSAFQDSSFHTPSVPFIVPLSVIICPDRVGVFLDYEACTVSFFNITNHGFLIYKFSHCSFSQPVFPYLNPRKCGVPMTLCSPSS [human TRIM5α, 7-codon duplication at 339]” was run?
**A.** Its enrichment is 0.788 ± 0.21.

± gives the standard deviation of the averaged measurements. Restriction of a single-cycle SIVsab GFP reporter by TRIM5α v1-loop variants in CRFK cells. Human variants: read share among cells still uninfected after two challenges over input, higher = gained restriction. Rhesus variants: share among infected cells over input, higher = lost restriction. Reporter dose not given per row. No active / inactive call per row; the paper calls a change when both replicates lie above its controls (mean + 2 SD of stop or wild-type variants, or the top frameshift score). Residues outside the varied loop are taken from Swiss-Prot. The paper reads the human single-substitution scores as noise; they and the rhesus combinations repeat poorly (rank correlation 0.3 to 0.4), indel scores repeat only for the top variants, rhesus substitutions well (0.9).
